In all, about 310,000 compounds went through this assay and about 2,200 (0.71%) showed an effect of 50% or more. The effect is printed as a negative number. This is one part of the list.
The molecules below were run against human ether-à-go-go-related gene (hERG) potassium channel (human, UniProt Q12809) (assay: primary screen, population patch clamp on CHO cells stably expressing hERG).
human ether-à-go-go-related gene (hERG) potassium channel, sequence (Q12809 whole entry, looked up): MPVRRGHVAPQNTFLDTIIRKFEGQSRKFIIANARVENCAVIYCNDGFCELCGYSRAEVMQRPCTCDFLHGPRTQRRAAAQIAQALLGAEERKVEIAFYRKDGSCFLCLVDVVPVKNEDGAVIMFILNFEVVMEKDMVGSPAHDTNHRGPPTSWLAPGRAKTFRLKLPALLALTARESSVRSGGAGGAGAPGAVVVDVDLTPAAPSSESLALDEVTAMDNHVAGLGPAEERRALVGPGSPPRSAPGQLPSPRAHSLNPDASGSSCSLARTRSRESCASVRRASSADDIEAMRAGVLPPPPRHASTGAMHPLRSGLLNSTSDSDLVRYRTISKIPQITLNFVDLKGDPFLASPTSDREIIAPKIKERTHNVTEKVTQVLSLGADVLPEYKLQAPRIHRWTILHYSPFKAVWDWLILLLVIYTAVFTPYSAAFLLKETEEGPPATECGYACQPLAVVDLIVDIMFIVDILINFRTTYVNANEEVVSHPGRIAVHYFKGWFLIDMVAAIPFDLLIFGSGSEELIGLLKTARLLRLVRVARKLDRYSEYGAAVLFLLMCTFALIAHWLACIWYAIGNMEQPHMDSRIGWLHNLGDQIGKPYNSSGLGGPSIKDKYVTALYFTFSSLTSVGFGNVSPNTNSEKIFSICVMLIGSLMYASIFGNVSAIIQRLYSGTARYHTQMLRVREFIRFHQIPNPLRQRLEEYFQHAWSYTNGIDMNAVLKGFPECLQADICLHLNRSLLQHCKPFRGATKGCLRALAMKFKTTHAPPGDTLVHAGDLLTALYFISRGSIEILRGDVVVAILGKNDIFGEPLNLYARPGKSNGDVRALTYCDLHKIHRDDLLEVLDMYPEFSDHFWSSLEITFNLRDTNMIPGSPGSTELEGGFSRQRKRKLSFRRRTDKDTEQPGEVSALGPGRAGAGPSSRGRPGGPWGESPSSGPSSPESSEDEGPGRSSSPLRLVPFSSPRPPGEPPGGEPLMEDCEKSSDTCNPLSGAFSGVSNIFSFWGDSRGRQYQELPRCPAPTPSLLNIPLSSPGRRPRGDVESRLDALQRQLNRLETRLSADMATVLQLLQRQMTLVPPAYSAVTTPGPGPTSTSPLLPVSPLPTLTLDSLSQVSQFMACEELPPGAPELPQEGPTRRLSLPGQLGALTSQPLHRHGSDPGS

Structure (SMILES) | hERG current change (%, negative = inhibition) at 1uM [%]
CC1CCCCC12NC(=O)N(CC(=O)NCCc1c[nH]c3ccccc13)C2=O (stereo not drawn) | -14.8
CCCCN(Cc1ccco1)C(=O)C1CCCN(c2ncnc3c2nc2n3CCCCC2)C1 (stereo not drawn) | -3.37
CCOC(=O)c1ccc(NC(=O)CN(Cc2ccc(Cl)cc2)S(C)(=O)=O)cc1 | 9.88
O=C(NC1CCCCCC1)c1cccc(N2CCCC2=O)c1 | 11.4
CCOC(=O)c1cc(NC(=O)c2c(C)noc2C)cc(C(=O)OCC)c1 | -4.6
Cc1cccc(-c2onc3ccc(C4(C)OCCO4)cc23)c1 | 3.13
Cc1ccc(N2CC(C(=O)Nc3nnc(SCC(N)=O)s3)CC2=O)cc1 (stereo not drawn) | 11.5
O=C(CSc1nc(=O)n(CCCN2CCOCC2)c2c1CCCC2)Nc1ccccc1Cl | -6.82
O=C(CCCN1C(=O)/C(=C\c2cccs2)SC1=S)NNC(=O)c1ccncc1 | 4.39
CN(C)S(=O)(=O)c1ccc(NC(=O)COc2ncnc3c2cnn3-c2ccccc2)cc1 | 4.39
CCC(C)NC(=S)Nc1ccc(C(=O)OC)cc1 (stereo not drawn) | 15
O=C(NCCc1ccccc1)C1CCCN(S(=O)(=O)c2cccs2)C1 (stereo not drawn) | -4.15
Cc1c(OCC(=O)NC(Cc2ccc(Cl)cc2)C(=O)O)ccc2c3c(c(=O)oc12)CCCC3 (stereo not drawn) | 15.8
O=C(CSc1nnc(CNC(=O)c2ccc(F)cc2)o1)c1ccccc1 | 14.1
Cc1cc(-c2ccc(C)c(S(=O)(=O)N3CCN(c4ccc(F)cc4)CC3)c2)on1 | 26.1
CS(=O)(=O)N1CCC(Oc2cccc(C(=O)NCCCC3CCCC3)c2)CC1 | 11.8
CCN(CC)S(=O)(=O)c1cc(C)c(C)cc1Br | 12.9
Cc1ccc(N2CS(=O)(=O)/C(=C/N(C)C)C2=O)cc1 | 5.99
COc1ccc(NC(=O)Cc2c(C)n(C(=O)c3ccc(Cl)cc3)c3ccc(OC)cc23)cc1 | 8.49
Cc1cc(Nc2ccccc2)n(-c2cccc(Cl)c2)n1 | 11.2
CCn1nc(CC(C)C)cc1C(=O)N1CCCC(Nc2ccc(F)cc2)C1 (stereo not drawn) | 2.47
O=C(Cn1ncc(Cl)c(Cl)c1=O)c1ccc(Cl)cc1 | 0.544
COc1ccc(C(=O)Cc2ccc(OC)c(OC)c2)cc1 | 13.1

Structure (SMILES) | hERG current change (%, negative = inhibition) at 1uM [%]
CN(Cc1ccccc1)C(=O)CN(C)S(=O)(=O)c1ccc(F)cc1 | 9.11
COc1ccc(NC(=O)CNC(=O)N2CC(=O)Nc3ccccc32)cc1OC | 25.4
COc1ccc(CC(=O)Oc2ccccc2Cl)cc1S(=O)(=O)N1CCOCC1 | 17.1
CC(C)(NO)/C(=N/O)c1ccc(Br)cc1 | 3.45
O=C(/C=C/c1ccco1)Nc1ccc(-c2nc3ccccc3[nH]2)cc1 | 6.91
O=C(NNC(=O)c1ccccc1Cl)c1ccncc1 | 8.77
CCOC(=O)N1CCN(C(=O)c2oc3ccc(S(=O)(=O)N(CC)CC)cc3c2C)CC1 | 15.7
Cc1cc(N(CCO)CCO)ccc1C(c1ccc(N(CCO)CCO)cc1C)c1ccccc1Cl | 5.61
Cc1nn(-c2ccccc2)c(C)c1/C=N/n1c(-c2ccccc2Br)n[nH]c1=S | 12.5
Cc1ccc(NC(=S)N2CCCCCC2)c(C)c1 | -3.24
Cc1ccc(S(=O)(=O)NCC(=O)OCc2ccccc2Br)cc1 | 5.33
COc1ccc(S(=O)(=O)NCC(=O)NCc2cc(=O)n(C)c(=O)n2C)cc1F | 16.4
CCOC(=O)C(C(=O)OCC)c1cc(Br)c2noc3c2c1C(=O)c1ccccc1-3 | 15.3
CCC(=O)N1CCc2cc(S(=O)(=O)N3CCN(c4ccccc4Cl)CC3)ccc21 | 9.64
O=C(O)c1cccc(N(CCO)CCO)c1 | 2.58
CC1CCCCC1N=CC1=C(O)CC(C)(C)CC1=O (stereo not drawn) | 9.16
Cc1cccc(/C=N/c2sc3c(c2C#N)CCN(Cc2ccccc2)C3)c1O | 10.9
O=C(Nc1ccccc1F)N(CCCN1CCOCC1)Cc1cc2cc3c(cc2[nH]c1=O)OCCO3 | 9.36
O=C1Nc2ccc(Br)cc2C1=Nc1ccc(-c2nnc3n2CCCCC3)cc1 | 9.81
NC(=O)C1CCN(C(=O)/C=C/c2cc(Br)ccc2F)CC1 | 11.9
Cc1ccccc1N=C1c2ccccc2C(=O)C1[N+](=O)[O-] (stereo not drawn) | -3.54
Cc1cc(N/C(=N\S(=O)(=O)c2ccc(F)cc2F)c2ccccc2)no1 | -4.58

From PMC4336329 (PLoS ONE, 2015)
